Consider four variants from the GPR68 mutational scans of Howard et al. (2025).

Scores whose standard error is large were omitted. Two further conditions of the source, in which the scores hardly spread, are not listed. Names with del lack the residues named; names with ins carry added residues between the positions named. For some assays here: How much ogerin was present is not stated here.

The chains are these.
B1: GPR68, Q15743 (parent)
chain: MGNITADNSSMSCTIDHTIHQTLAPVVYVTVLVVGFPANCLSLYFGYLQIKARNELGVYLCNLTVADLFYICSLPFWLQYVLQHDNWSHGDLSCQVCGILLYENIYISVGFLCCISVDRYLAVAHPFRFHQFRTLKAAVGVSVVIWAKELLTSIYFLMHEEVIEDENQHRVCFEHYPIQAWQRAINYYRFLVGFLFPICLLLASYQGILRAVRRSHGTQKSRKDQIQRLVLSTVVIFLACFLPYHVLLLVRSVWEASCDFAKGVFNAYHFSLLLTSFNCVADPVLYCFVSETTHRDLARLRGACLAFLTCSRTGRAREAYPLGAPEASGKSGAQGEEPELLTKLHPAFQTPNSPGSGGFPTGRLA

The variants in data set [1] derive from B1. The data set is described as follows: cAMP reporter score (Enrich2 score, wild type = 0); higher = more signal; HEK293T, FACS bins.
In data set [2] the parent is B1. The data set is described as follows: surface expression score (Enrich2 score, wild type = 0); higher = more signal; HEK293T, FACS bins.

As for MGNITADNSSMSCTIDHTIHQTLAPVVYVTVLVVGFPANCLSLYFGYLQIKARNELGVYLCNLTVADLFYICSLPFWLQYVLQHDNWSHGDLSCQVCGILLYENIYISVGFLCCISVDRYLAVAHPFRFHQFRTLKAAVGVSVVIWAKELLTSIYFLMHEEVIEDENQHRVCFEHYPIQAWQRAINYYRFLVGFLFPICSLLASYQGILRAVRRSHGTQKSRKDQIQRLVLSTVVIFLACFLPYHVLLLVRSVWEASCDFAKGVFNAYHFSLLLTSFNCVADPVLYCFVSETTHRDLARLRGACLAFLTCSRTGRAREAYPLGAPEASGKSGAQGEEPELLTKLHPAFQTPNSPGSGGFPTGRLA [L200S], the cAMP reporter score was -1.78 in data set [1] (pH 5.5); -1.37 in data set [1] (pH 6, modulator: ogerin); -1.66 in data set [1] (pH 6.5, modulator: ogerin).

As for MGNITADNSSMSCTIDHTIHQTLAPVVYVTVLVVGFPANCLSLYFGYLQIKARNELGVYLCNLTVADLFYICSLPFWLQYVLQHDNWSHGDLSCQVCGILLYENIYISVGFLCCISVDRYLAVAHPFRFHQFRTLKAAVGVSVVIWAKELLTSIYFLMHEEVIEDENQHRVCFEHYPIQAWQRAINYYRFLVGFLFPICQLLASYQGILRAVRRSHGTQKSRKDQIQRLVLSTVVIFLACFLPYHVLLLVRSVWEASCDFAKGVFNAYHFSLLLTSFNCVADPVLYCFVSETTHRDLARLRGACLAFLTCSRTGRAREAYPLGAPEASGKSGAQGEEPELLTKLHPAFQTPNSPGSGGFPTGRLA [L200Q], the cAMP reporter score in data set [1] (pH 5.5) was -1.11; in data set [1] (pH 6), -0.856; in data set [1] (pH 6, modulator: ogerin), -1.26; in data set [1] (pH 6.5, modulator: ogerin), -0.593. For the same variant, the surface expression score in data set [2] was -1.15.

In the case of MGNITADNSSMSCTIDHTIHQTLAPVVYVTVLVVGFPANCLSLYFGYLQIKARNELGVYLCNLTVADLFYICSLPFWLQYVLQHDNWSHGDLSCQVCGILLYENIYISVGFLCCISVDRYLAVAHPFRFHQFRTLKAAVGVSVVIWAKELLTSIYFLMHEEVIEDENQHRVCFEHYPIQAWQRAINYYRFLVGFLFPICPLLASYQGILRAVRRSHGTQKSRKDQIQRLVLSTVVIFLACFLPYHVLLLVRSVWEASCDFAKGVFNAYHFSLLLTSFNCVADPVLYCFVSETTHRDLARLRGACLAFLTCSRTGRAREAYPLGAPEASGKSGAQGEEPELLTKLHPAFQTPNSPGSGGFPTGRLA [L200P], the cAMP reporter score is -0.482 in data set [1] (pH 5.5); -0.056 in data set [1] (pH 6); -0.646 in data set [1] (pH 6, modulator: ogerin); -0.392 in data set [1] (pH 6.5, modulator: ogerin). For the same variant, in data set [2], the surface expression score was -0.482.

Regarding MGNITADNSSMSCTIDHTIHQTLAPVVYVTVLVVGFPANCLSLYFGYLQIKARNELGVYLCNLTVADLFYICSLPFWLQYVLQHDNWSHGDLSCQVCGILLYENIYISVGFLCCISVDRYLAVAHPFRFHQFRTLKAAVGVSVVIWAKELLTSIYFLMHEEVIEDENQHRVCFEHYPIQAWQRAINYYRFLVGFLFPICTLLASYQGILRAVRRSHGTQKSRKDQIQRLVLSTVVIFLACFLPYHVLLLVRSVWEASCDFAKGVFNAYHFSLLLTSFNCVADPVLYCFVSETTHRDLARLRGACLAFLTCSRTGRAREAYPLGAPEASGKSGAQGEEPELLTKLHPAFQTPNSPGSGGFPTGRLA [L200T], the cAMP reporter score in data set [1] (pH 5.5) is -0.571; in data set [1] (pH 6, modulator: ogerin), -0.056; in data set [1] (pH 6.5, modulator: ogerin), -0.203. The surface expression score in data set [2] was -1.03.
